Results as given in PubChem BioAssay AID1347428 (National Center for Advancing Translational Sciences (NCATS), 2020).
Out of some 91,000 compounds screened, about 290 (0.32%) were called active. The inconclusive results got no clear call from the source; some entries with a clear call stand among them for comparison. Calls follow the shape of the dose curve; as a rule, active = well fitted inhibition curve with a large enough effect; inconclusive = small, poorly fitted or top-dose-only effect; inactive = no such curve, though single readings can be large or run the other way. A potency beside an inconclusive call is a rough fit, not a confirmed value.

These compounds were tested against Single-stranded DNA cytosine deaminase (Homo sapiens) (UniProt Q9GZX7) (assay: Primary qHTS assay for inhibitors of Activation Induced Cytidine Deaminase (AID): AID signal). Conditions: AID deamination FRET fluorescence, UDG-coupled, 4 h; activity change, negative = inhibition: at 115 µM (top of the series).
% is scaled to controls: 0 for no effect and ±100 for the full control effect; potency is read from the fitted curve at half-maximal effect; tags tell the direction and shape of the fitted curve.
Also: nearly all actives have a fitted effect of over 25% in size.

UniProt Q9GZX7, sequence (Q9GZX7 whole entry, looked up): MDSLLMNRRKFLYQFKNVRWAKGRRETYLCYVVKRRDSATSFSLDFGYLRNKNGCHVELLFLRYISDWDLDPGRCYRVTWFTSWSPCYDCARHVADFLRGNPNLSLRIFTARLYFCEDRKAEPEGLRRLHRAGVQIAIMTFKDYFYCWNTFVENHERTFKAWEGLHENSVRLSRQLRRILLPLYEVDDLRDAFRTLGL

Row | Structure (SMILES) | Potency | activity change, negative = inhibition
1 | CCOC(=O)c1c(S(=O)(=O)N2CCCC(C(=O)N3CCN(c4cccc(C)c4C)CC3)C2)c(C)n(C)c1C (stereo not given) | inconclusive: 50.1 µM [inhibitor, partial curve, poor fit] | –
2 | Oc1ccc(Cl)cc1C=NCc1ccccc1C(F)(F)F | – | inactive: -9.56%
3 | CN(C(=O)/C(C#N)=C\c1ccc(OC(F)F)cc1)C1CCCCC1 | – | inactive: -1.93%
4 | CCN(CC)S(=O)(=O)c1ccc2c(c1)N(CC(=O)N1CCN(c3cccc(C(F)(F)F)c3)CC1)C(=O)CO2 | inconclusive: 39.8 µM [inhibitor, full curve, poor fit] | –
5 | COc1ccc(-c2nn(C)c3sc(C(=O)Nc4cccc(F)c4)cc23)cc1OC | inconclusive: 100 µM [inhibitor, partial curve, poor fit] | –
6 | Cc1cccc(C)c1NC(=O)COC(=O)CSc1ccc2ccccc2c1 | – | inactive: 0.519%
7 | CCC1CN(C(=O)N2CCC(C(=O)NCc3ccc(OC)cc3OC)CC2)c2cc(C)ccc2O1 (stereo not given) | inconclusive: 79.4 µM [inhibitor, single point] | –
8 | Cn1c(SCc2ccc(F)cc2)nc2ccc(C(=O)NCc3ccc(F)cc3)cc21 | active: 28.2 µM | –
9 | CCOC(=O)N1CCN(C(=O)CN(c2cccc(Cl)c2C)S(=O)(=O)c2ccc(C)cc2)CC1 | inconclusive: 79.4 µM [inhibitor, single point] | –
10 | COc1ccc2c(CCNC(=O)CNc3nc(Cl)nc4nc[nH]c34)c[nH]c2c1 | – | inactive: 33.8%
11 | O=C(Nc1ccc(F)cc1)[C@H](Cc1ccccc1)N1Cc2ccccc2C1=O | inconclusive: 7.94 µM [inhibitor, full curve, poor fit] | –
12 | Cc1ccc(C(=O)Nc2ccc(Cl)c(-c3nc4ncccc4o3)c2)c(C)c1 | inconclusive: 31.6 µM [inhibitor, full curve, poor fit] | –
13 | Cc1cc(C)c2c(CC(=O)N(Cc3ccc(N(C)C)cc3)Cc3ccco3)coc2c1 | inconclusive: 14.1 µM [inhibitor, full curve, poor fit] | –
14 | COc1ccccc1CNc1ccc(-c2nc(C(C)C)no2)cc1[N+](=O)[O-] | inconclusive: 20 µM [inhibitor, full curve] | –
15 | Cc1c(Cl)ccc2sc(N3CCN(C(=O)c4ccco4)CC3)nc12 | inconclusive: 79.4 µM [inhibitor, partial curve, poor fit] | –
16 | CCS(=O)(=O)N1N=C(c2ccc(C)cc2)CC1c1cc2ccc(OC)cc2nc1Cl (stereo not given) | inconclusive: 14.1 µM [inhibitor, full curve, poor fit] | –
17 | CCOc1ccc(C(=O)CCC(=O)OCC(=O)c2ccc3c(c2)OCCO3)cc1 | – | inactive: 20.4%
18 | CCCCCCc1ccc(/C(C)=C/C(=O)O)cc1 | inconclusive: 79.4 µM [inhibitor, partial curve, poor fit] | –
19 | Cc1ccc(S(=O)(=O)NCCc2nnc3ccc(SCc4ccccc4C)nn23)cc1 | inconclusive: 28.2 µM [inhibitor, single point] | –
20 | Cc1ccc(C(NC(=O)COc2ccccc2)c2cccs2)cc1 (stereo not given) | – | inactive: -10.3%

Row | Structure (SMILES) | Potency | activity change, negative = inhibition
21 | CN1C(=O)C2(c3ccccc31)N(c1ccccc1)C(=O)CS2(=O)=O (stereo not given) | inconclusive: 100 µM [inhibitor, single point] | –
22 | CCn1c(C(=O)NCc2cccc(Br)c2)cc2oc3ccccc3c21 | inconclusive: 39.8 µM [inhibitor, full curve, poor fit] | –
23 | CCc1ccc(-c2nc3ccc(Br)cc3c(C(=O)O)c2C)s1 | inconclusive: 70.8 µM [inhibitor, partial curve, poor fit] | –
24 | CCCC(C)(C)NC(=O)Cc1ccc(OC)c(OC)c1 | – | inactive: -5.83%
25 | CCOc1ccccc1NC(=O)CSc1nccn1-c1ccc(Cl)cc1 | inconclusive: 17.8 µM [inhibitor, full curve, poor fit] | –
26 | COc1ccc(C(=O)c2cn(Cc3ccc(C)cc3)c3cc4c(cc3c2=O)OCO4)cc1 | inconclusive: 50.1 µM [inhibitor, partial curve, poor fit] | –
27 | CC[C@@H](C)[C@H](NC(=O)c1sc(-c2ccccc2F)nc1C)C(=O)O | – | inactive: 2.14%
28 | CC(OC(=O)c1cc(-c2ccco2)nc2ccccc12)C(=O)NC(=O)NC1CCCCC1 (stereo not given) | – | inactive: -14.1%
29 | Cc1cccc(C)c1Nc1c(-c2ccc(Cl)s2)nc2ncccn12 | active: 44.7 µM | –
30 | Cc1ccc(NC(=O)C2=C(c3ccccc3)NC(=S)NC2c2ccc(C(C)(C)C)cc2)cc1 (stereo not given) | – | inactive: -19%
31 | COc1ccc(-c2c(C)oc3cc(OCC(=O)NCCC4=CCCCC4)ccc3c2=O)cc1 | inconclusive: 35.5 µM [inhibitor, partial curve] | –
32 | Cc1ccc2oc(C(=O)N(Cc3ccccc3F)C3CCS(=O)(=O)C3)c(C)c2c1 (stereo not given) | inconclusive: 14.1 µM [inhibitor, full curve] | –
33 | Cc1ccc(CSCC(=O)N2CCN(c3cc(Cl)ccc3C)CC2)cc1 | inconclusive: 14.1 µM [inhibitor, full curve, poor fit] | –
34 | COc1ccc(NC(=O)[C@@H](c2ccccc2)N2Cc3ccccc3C2=O)cc1OC | inconclusive: 39.8 µM [inhibitor, partial curve, poor fit] | –
35 | C=CCc1c(C)nc(Nc2nc(C)c3ccc(C)cc3n2)[nH]c1=O | inconclusive: 56.2 µM [inhibitor, partial curve, poor fit] | –
36 | CCOc1ccc(CNC(=O)c2c(C)nn(-c3ccc(F)cc3)c2-n2cccc2)cc1 | inconclusive: 79.4 µM [inhibitor, partial curve, poor fit] | –
37 | CCN(CC)c1cc(C)c2cc(NC(=O)/C=C/c3ccc(C)cc3)ccc2n1 | inconclusive: 100 µM [inhibitor, single point] | –
38 | Cc1ccc(-c2nc(CS(=O)CC(=O)N3CCN(c4ccccc4)CC3)c(C)o2)cc1 (stereo not given) | inconclusive: 70.8 µM [inhibitor, partial curve, poor fit] | –
39 | Cc1ccc2c(c1)N(C(=O)Cn1c(=O)n(CC(=O)N3CCCCC3)c(=O)c3sccc31)CCO2 | – | inactive: -3.68%
40 | Cc1ccc2c(=O)c(-c3nc(-c4cccc(F)c4)no3)cn(CC(=O)NCc3ccco3)c2n1 | inconclusive: 20 µM [inhibitor, partial curve, poor fit] | –
